From the RNAGym collection of RNA variant scans (doi:10.7554/elife.90254)
The source gives no read counts; variants with many changes may rest on few reads.

B1: LINE1-mini (parent)
chain: GGCAGAGCUCAACACAGCGUGGCAAAGUGGCUGUGGCUAGACUGCC

Variants of: B1
Test: self-cleavage, relative activity (ratio to wild type); higher = more cleavage; in vitro, sequencing; the parent is a self-cleaving ribozyme

Variant	self-cleavage
G27U G30U A41U C42A	0.03
C10G A12U G40A	0.03
C31U G35U C45A	0.13
A14U C15A G29A	0.03
G5U A11C A24C C37A G40U	0.02
A12C G35U G44C	0
A4U C8U C10A G21A U34A	0.04
G1C C3A C10A A11C	0.02
G2U A6U G21A A26C	0.06
C3A U9G U20A G22U C42A	0.05
C8G C18A U28G	0.02
C3G G17C G30U	0.01
G5U G17C U28C C37U	0.02
A11C C42U C46U	0.01
G7A C8G G17A	0.04
G1U C3G G17U	0.13
C3G C18A U43A G44C	0.08
G1A U9C C10G C45G	0.05
C3A U20G C23U C37G C42G	0.01
C8U U20G A26C	0.05
U20A C23A G36A	0.06
G19U G30A G35U C46G	0.07
U9C C15U G36A	0.02
U9G G17C G29U	0.1

Variant	self-cleavage
A16G G19A G27U G29U U32G U43G	0
G40A G44A C46U	0.03
G7U G21U C46A	0.03
G7A A24G A26U C31U C37A	0.11
A4U C23G A24G C31A	0.11
G1C C8A G27U	0.02
A12G G30U C46A	0.04
U32A A41U C45A	0.15
A11G G21C C23A	0.02
A11U A12G A24G G35C C42G	0
G5U C8G G21U G44U	0.02
G2C C8A A12U G17A A26U G29U	0.21
G30U G40C C42A G44C C45A C46U	0.05
G17A G19U U34C C42U	0.09
G2A G36C A39G C45G	0.11
G5A G17U G27U C42A	0.03
C3G G19C U20C C23U	0.15
C23U G29C G36U	0.04
C13G A16G G29U	0.02
A12U C31U A39U	0.04
G2U U38C C46U	0.06
G1A A26U U28A	1.36
C10G C18U G36U	0.02
A6G G21U A24G G30C U32A U34G	0.03

Variant	self-cleavage
U9C U20G U32C	0.01
C3A G19A A39U	0.42
G1A U28A C45U	0.34
A14C G36U A39C	0.02
G21U G22C C31G G36U	0.08
A4U C15U U28C C42G	0.01
G5U C13G A14C C18U C31G	0.03
G29U G33U A39G	0.04
G5C A12U C18A G27C	0.01
G5U A6U A12G C37U	0.28
G21C U43G C46U	0.03
C3A G36A C45U	0.36
G17A U34G C37A	0.04
G5A A12G U28A	0.02
A14U C23A G33U	0.08
C8A G40A A41G	0.42
A6C U9A G19U A26U U34C	0.04
C8U C10G A24U G35C	0.01
G7U C8G A12G	0.03
C10A A12C A14G	0.02
C18U G27C U32C	0.02
G1U G22A A25C G44C	0.7
C8G G29A C46A	0.22
C3U A6G A11U A39U G44A	0.01

Variant	self-cleavage
G2C C10A C13A G36C	0.15
C10A A41C G44U	0.03
A24G A26U G29C G40U	0.03
C3U G19U U28C G30C U32A	0.09
G7C A25U G36C	0.14
G21U A26G G33C C37A G40A	0.05
U20C A25G U28G U43A	0.08
C3G G7A C15A A16G	0.1
G7A C8G C10A A16U G17A	0.06
C3U G27U U34G G40A	0.03
C3A C13G A16U A25C A26C	0.06
A11G G19C A26C C31G C45U	0
G1C G17U A25U	0.02
U9A G36U U38G G40A	0.02
C13G C23A U34C	0.03
G2U G5U C10A G35U G36C	0.02
A4G A26C G36U G44U	0.19
U32G C37G G44A	0.03
A14U U28G G30A U34G	0.17
C23A C31G U34A	0
G17A A25C G27U	1.1
C3U C13G G30C	0.07
A4G G5U C45G	0.02
U9A G17A G22U C46A	0.12

Variant	self-cleavage
C15G G21A G29U G36C U43C	0.02
A24U G29U C46U	0.71
G2C C3U C13A A41G	0.12
A6U C23U U43A	0.14
A6G A16C C23A A26G C31G	0.03
A14C U43G C46U	0.02
G7C A26U U28C C37U G40C	0.06
A4G A6C A14G C23A A26C G29A	0.34
A11G G19A G30A U34A	0.02
A12G G17C C18U C23A	0.01
G21U G27A G36C	0.09
C8A G40U A41U	0.12
G5A G17U U20G G33U G35A	0.03
G1A G36A C37G G40C U43A	0.02
C3G G5A G27A U32G A41C	0.03
U9C A11G A14C	0.01
G2U C3U A4U A12G C37A	0.05
A4U C15A G33A A39C C45A C46A	0.04
G19A U32A U34G C45U	0.08
C23A G27U G30U	0.93
U9A C10U A11C A12G	0
A12C G17U A24C A39U U43G	0
G21A G22C C23U U34A C37U	0.04
C18A G36A C45A	0.01

Variant	self-cleavage
U9G C13U C15G G29C	0.11
C8U G35C G40U	0.04
A26C G35A G36U	0.08
G5U G7A G30U	0.08
C15U C23G G29U	2.2
G1A G5U G33U C46A	0.04
A4G G7A C42A	0.49
C8A A14G C18U	0.15
C3U G7A G27C G40U U43G	0.17
C23G U43G C45A	0.31
G5A C15A G21U	0.03
G7U U9A C10A A25U C31A U34G	0.08
A6G C8G C13U	0.04
A6G A11G A14U G21A C37A	0.01
G7C C23G C46A	0.14
G2A G17U G27C	0.06
C10A A11G A14G C18A G29U C31A	0
C8U G22U C23G A25G	0.17
A14U G22C G44A	0.04
G33U A41G C42U	0.06
C31G A41U C46G	0.1
G19A A24U A25U C31A C42U	0.09
A6G G7C C10A A25C G33C C42A	0.01
C3A C8U G44C	0.14

Variant	self-cleavage
G5U U9C C37G	0.01
G2C A6C C13U C15G A26U A39U	0.02
C18A G21A G36A	0.25
G29U U32G C45U	0.16
A16C C18G A24G U28A U34A	0.02
C8A U9C G27A G36U	0.04
A26U G35A A39G	0.11
A4U A24G A25G A41C	0.04
C8A A16U C46U	0.39
A26U U28A C31U U34G	0.03
C18G G19U A25G G40U	0.01
C10A U32G G35U	0.01
G2A C10A G17A G29U	0.06
G7C A14C C18G G33U	0.03
C10A C13U G17A G35C G40C C42G	0.01
A4U C13U C15U A39G C46U	0.02
G7C U9G C13G G29C G33A U34A	0.06
A26U G27A C42A G44C	0.21
C13A G22A C46G	0.13
G7C C10A A25C U34C G35U C37U C42A G44A	0
U20C U28G G36U	0.01
G1A G17A C18G	0.05
G1U A4C G7C	0.25
